# About 110 (3.4%) of roughly 3,200 compounds showed an effect of 50% or more. The list shows a part of the results.
# Test system: T1, V. cholerae SAD30
# T1 construct: SAD30
# Design: species or system S. aureus MSSA476 (TSB) or V. cholerae SAD30 (LB); 384-well bacterial growth screen at 25 uM, OD600 relative to DMSO control
# Conditions: relative growth, OD600, LB; 25 µM; inhibitor
row,SMILES,% of control remaining
1,"O=C(CCl)Nc1cccc(Oc2ccccc2)c1 [4-P19, 2-chloro-N-(3-phenoxyphenyl)acetamide]",96.6142%
2,"O=C(CCl)N(CC=Cc1ccccc1)c1ccc2c(c1)OCCO2 [4-G19, 2-chloro-N-(2,3-dihydro-1,4-benzodioxin-6-yl)-N-(3-phenylprop-2-en-1-yl)acetamide]",103.86%
3,"CC1CN(C(=O)C(C#N)=Cc2ccc(OC(F)F)cc2)CC(C)O1 (stereo not drawn) [8-G05, 3-[4-(difluoromethoxy)phenyl]-2-(2,6-dimethylmorpholine-4-carbonyl)prop-2-enenitrile]",76.3426%
4,"C=CC(=O)NCC1CCc2cccnc21 (stereo not drawn) [3-M07, N-({5H,6H,7H-cyclopenta[b]pyridin-7-yl}methyl)prop-2-enamide]",94.9127%
5,"N#CC(=Cc1ccc2ccccc2c1)C(=O)NCc1ccccc1 [9-N11, N-benzyl-2-cyano-3-(naphthalen-2-yl)prop-2-enamide]",84.5003%
6,"Cc1nc(C#N)c(N2CCN(C(=O)CCl)CC2)o1 [5-L18, 5-[4-(2-chloroacetyl)piperazin-1-yl]-2-methyl-1,3-oxazole-4-carbonitrile]",96.3329%
7,"O=C(CCl)NCC1(c2ccc(F)cc2)CCCC1 [6-E18, 2-chloro-N-{[1-(4-fluorophenyl)cyclopentyl]methyl}acetamide]",85.2403%
8,"C=CC(=O)N1CCC(C(=O)N2CCOc3cc(F)ccc3C2)CC1 [3-E06, 1-[4-(8-fluoro-2,3,4,5-tetrahydro-1,4-benzoxazepine-4-carbonyl)piperidin-1-yl]prop-2-en-1-one]",91.3839%
9,"C=CC(=O)N(Cc1cccc(Cl)c1F)C(C)C1CCOCC1 (stereo not drawn) [1-F04, N-[(3-chloro-2-fluorophenyl)methyl]-N-[1-(oxan-4-yl)ethyl]prop-2-enamide]",108.93%
10,"C=CC(=O)N1CCN(C(=O)c2cc(C)no2)CC1 [1-N19, 1-[4-(3-methyl-1,2-oxazole-5-carbonyl)piperazin-1-yl]prop-2-en-1-one]",88.3408%
11,"CS(=O)(=O)c1ccc(CNC(=O)CCl)cc1 [6-O12, 2-chloro-N-[(4-methanesulfonylphenyl)methyl]acetamide]",95.2507%
12,"C=CC(=O)N1CCC(C(=O)NC(C)(C)c2ccc(F)c(F)c2)CC1 [1-L04, N-[2-(3,4-difluorophenyl)propan-2-yl]-1-(prop-2-enoyl)piperidine-4-carboxamide]",117.272%
13,"COC(=O)c1cccc(C(=O)CCl)c1 [10-I11, methyl 3-(2-chloroacetyl)benzoate]",32.4177%
14,"O=C1C=CC(=O)N1CCc1ccccc1 [10-E20, 1-(2-phenylethyl)-2,5-dihydro-1H-pyrrole-2,5-dione]",27.5862%
15,"NC(=O)CCc1ccc(C(=O)CCl)cc1 [10-I03, 3-[4-(2-chloroacetyl)phenyl]propanamide]",70.7578%
16,"C=CC(=O)N1CCCN(C(=O)c2ccc(OC)cc2)CC1 [3-A21, 1-[4-(4-methoxybenzoyl)-1,4-diazepan-1-yl]prop-2-en-1-one]",127.201%
17,"C=CC(=O)Nc1cnn(-c2ccccc2C)c1C(F)F [1-E22, N-[5-(difluoromethyl)-1-(2-methylphenyl)-1H-pyrazol-4-yl]prop-2-enamide]",98.0568%
18,"C=CC(=O)N1CCOC(c2cccc(OC)c2)C1 (stereo not drawn) [3-E09, 1-[2-(3-methoxyphenyl)morpholin-4-yl]prop-2-en-1-one]",97.7357%
19,"O=C(CCl)COc1ccc(Cl)cc1 [10-M17, 1-chloro-3-(4-chlorophenoxy)propan-2-one]",11.6891%
20,"Cc1[nH]c2ccccc2c1C=C(C#N)C(=O)NCc1ccccc1 [8-D16, N-benzyl-2-cyano-3-(2-methyl-1H-indol-3-yl)prop-2-enamide]",68.5928%
21,"N#CC(=Cc1ccc2c(c1)OCCO2)C(=O)Nc1nccs1 [8-B03, 2-cyano-3-(2,3-dihydro-1,4-benzodioxin-6-yl)-N-(1,3-thiazol-2-yl)prop-2-enamide]",93.8817%
22,"O=C(CCl)N[C@H]1C[C@H](c2ccccc2)C1 [7-D12, 2-chloro-N-[(1r,3r)-3-phenylcyclobutyl]acetamide]",82.2072%
23,"O=C(CCl)Nc1ccc(SC(F)F)cc1 [4-B10, 2-chloro-N-{4-[(difluoromethyl)sulfanyl]phenyl}acetamide]",104.205%

row,SMILES,% of control remaining
1,"CC(C)CN(C(=O)CCl)C1CC1 [5-D14, 2-chloro-N-cyclopropyl-N-(2-methylpropyl)acetamide]",92.298%
2,"C=CC(=O)Nc1cc(C)n(CC(C)c2nnc3n2CCCCC3)n1 (stereo not drawn) [2-A17, N-[5-methyl-1-(2-{5H,6H,7H,8H,9H-[1,2,4]triazolo[4,3-a]azepin-3-yl}propyl)-1H-pyrazol-3-yl]prop-2-enamide]",92.3574%
3,"C=CC(=O)N1CCC(C(=O)N[C@H]2CC[C@@H]2O)(c2ccccc2)CC1 (racemic) [3-G08, rac-N-[(1R,2R)-2-hydroxycyclobutyl]-4-phenyl-1-(prop-2-enoyl)piperidine-4-carboxamide]",93.3248%
4,"COc1cc([N+](=O)[O-])ccc1NC(=O)CCl [4-O07, 2-chloro-N-(2-methoxy-4-nitrophenyl)acetamide]",100.582%
5,"C=CC(=O)Nc1ccc(-c2noc(C)n2)cc1 [1-K16, N-[4-(5-methyl-1,2,4-oxadiazol-3-yl)phenyl]prop-2-enamide]",84.6039%
6,"O=C(CCl)NC(c1ccccc1)C1CC1 (stereo not drawn) [5-L16, 2-chloro-N-[cyclopropyl(phenyl)methyl]acetamide]",96.501%
7,"Cc1cc(C=C(C#N)C(N)=O)c(C)n1-c1cccc2ccccc12 [9-I12, 2-cyano-3-[2,5-dimethyl-1-(naphthalen-1-yl)-1H-pyrrol-3-yl]prop-2-enamide]",52.4133%
8,"COc1ccc(C=C(C#N)C(=O)Nc2ccccc2)cc1 [8-A05, 2-cyano-3-(4-methoxyphenyl)-N-phenylprop-2-enamide]",91.9782%
9,"C=CC(=O)NC1(c2ccc(C(F)(F)F)cc2)CCCC1 [2-E04, N-{1-[4-(trifluoromethyl)phenyl]cyclopentyl}prop-2-enamide]",87.4168%
10,"COc1ccc(NC(=O)C(C#N)=Cc2c(Cl)nc3ccccn23)cc1 [9-G09, 3-{2-chloroimidazo[1,2-a]pyridin-3-yl}-2-cyano-N-(4-methoxyphenyl)prop-2-enamide]",85.9959%
11,"C=CC(=O)N1CC(OCc2nc(C)no2)C1 [1-P18, 1-{3-[(3-methyl-1,2,4-oxadiazol-5-yl)methoxy]azetidin-1-yl}prop-2-en-1-one]",127.331%
12,"C=CC(=O)NCCC(=O)N1CCN(c2ccccc2Cl)CC1 [3-J22, N-{3-[4-(2-chlorophenyl)piperazin-1-yl]-3-oxopropyl}prop-2-enamide]",101.97%
13,"O=C(CCl)NC1CCC(O)(c2cccc(F)c2)CC1 (stereo not drawn) [5-A11, 2-chloro-N-[4-(3-fluorophenyl)-4-hydroxycyclohexyl]acetamide]",100.872%
14,"C=CC(=O)N1CC(NC(=O)c2ccoc2CC)C(C)(C)C1 (stereo not drawn) [1-L22, N-[4,4-dimethyl-1-(prop-2-enoyl)pyrrolidin-3-yl]-2-ethylfuran-3-carboxamide]",95.4367%
15,"C=CC(=O)NC1C(=O)OCC1(C)C (stereo not drawn) [1-E08, N-(4,4-dimethyl-2-oxooxolan-3-yl)prop-2-enamide]",96.1136%
16,"N#CC(=CC1=Cc2ccccc2OC1)C(=O)NCc1ccccc1 [9-F08, N-benzyl-3-(2H-chromen-3-yl)-2-cyanoprop-2-enamide]",87.4915%
17,"CC(Cl)C(=O)NCc1nn(-c2ccccc2)c2c1CCC2 (stereo not drawn) [7-P05, 2-chloro-N-({1-phenyl-1H,4H,5H,6H-cyclopenta[c]pyrazol-3-yl}methyl)propanamide]",70.1801%
18,"COc1ccc(NC(=O)c2ccccc2NC(=O)CCl)cc1 [4-L05, 2-(2-chloroacetamido)-N-(4-methoxyphenyl)benzamide]",109.209%
19,"C=CC(=O)NCC1CCC2(CCCOC2)O1 (stereo not drawn) [2-O13, N-({1,7-dioxaspiro[4.5]decan-2-yl}methyl)prop-2-enamide]",86.9536%
20,"CSc1ccc(C=C(C#N)C(=O)Nc2ccc3c(c2)OCCO3)cc1 [9-L05, 2-cyano-N-(2,3-dihydro-1,4-benzodioxin-6-yl)-3-[4-(methylsulfanyl)phenyl]prop-2-enamide]",91.8423%
21,"C=CC(=O)N(Cc1sc(C)nc1C)[C@@H](C)[C@H]1COC(C)(C)O1 [1-B15, N-[(1S)-1-[(4S)-2,2-dimethyl-1,3-dioxolan-4-yl]ethyl]-N-[(2,4-dimethyl-1,3-thiazol-5-yl)methyl]prop-2-enamide]",85.2018%
22,"CC1CCCN(Cc2ccc(CNC(=O)CCl)cc2)C1.Cl (stereo not drawn) [6-K04, 2-chloro-N-({4-[(3-methylpiperidin-1-yl)methyl]phenyl}methyl)acetamide hydrochloride]",90.8522%
